# The whole screen tested about 310,000 compounds, of which about 2,200 (0.71%) showed an effect of 50% or more. Effects have a minus sign here. The list shows a part of the results.
# Biological target: human ether-à-go-go-related gene (hERG) potassium channel (human, UniProt Q12809)
# Assay: primary screen, population patch clamp on CHO cells stably expressing hERG
# Sequence of human ether-à-go-go-related gene (hERG) potassium channel (Q12809 whole entry, looked up): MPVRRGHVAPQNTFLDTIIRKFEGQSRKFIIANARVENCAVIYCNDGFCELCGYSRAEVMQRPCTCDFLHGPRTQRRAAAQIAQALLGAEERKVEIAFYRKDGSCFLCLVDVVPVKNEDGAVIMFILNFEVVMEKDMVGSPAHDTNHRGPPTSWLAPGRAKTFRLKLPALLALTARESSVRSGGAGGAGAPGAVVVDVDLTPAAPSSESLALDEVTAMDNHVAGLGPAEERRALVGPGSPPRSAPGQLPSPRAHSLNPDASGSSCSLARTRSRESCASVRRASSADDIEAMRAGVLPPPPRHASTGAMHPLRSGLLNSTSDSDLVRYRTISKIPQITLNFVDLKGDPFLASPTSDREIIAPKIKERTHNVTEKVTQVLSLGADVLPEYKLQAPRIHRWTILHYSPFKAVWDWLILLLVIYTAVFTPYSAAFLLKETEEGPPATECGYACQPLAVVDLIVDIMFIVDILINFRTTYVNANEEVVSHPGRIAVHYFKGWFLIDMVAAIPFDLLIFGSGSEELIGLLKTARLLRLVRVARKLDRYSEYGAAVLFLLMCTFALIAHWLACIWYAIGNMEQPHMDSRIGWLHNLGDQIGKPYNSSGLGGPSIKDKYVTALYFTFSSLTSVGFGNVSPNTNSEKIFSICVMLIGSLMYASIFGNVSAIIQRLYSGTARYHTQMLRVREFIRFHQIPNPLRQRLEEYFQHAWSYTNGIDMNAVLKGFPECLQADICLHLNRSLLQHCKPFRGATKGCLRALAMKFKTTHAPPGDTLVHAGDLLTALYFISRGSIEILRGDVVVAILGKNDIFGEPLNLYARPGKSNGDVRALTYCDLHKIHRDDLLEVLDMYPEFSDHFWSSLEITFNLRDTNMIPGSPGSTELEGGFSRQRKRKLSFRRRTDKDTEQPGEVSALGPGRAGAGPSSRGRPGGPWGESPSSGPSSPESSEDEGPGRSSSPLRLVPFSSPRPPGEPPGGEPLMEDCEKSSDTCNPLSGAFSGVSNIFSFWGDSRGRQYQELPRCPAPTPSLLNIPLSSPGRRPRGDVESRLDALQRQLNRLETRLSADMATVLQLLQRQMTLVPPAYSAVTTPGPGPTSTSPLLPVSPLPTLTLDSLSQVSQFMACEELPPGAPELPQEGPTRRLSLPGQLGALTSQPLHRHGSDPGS
row,SMILES,"hERG current change (%, negative = inhibition) at 1uM [%]"
1,CCOC(=O)c1c(C2CC2)csc1NC(=O)COC(=O)CCS(=O)(=O)c1ccc(C)cc1,10.1
2,OCCOCCn1c(C2CCCN2c2nc(-c3ccc(F)cc3)cs2)nc2cc(Cl)c(Cl)cc21 (centres unmarked),-0.144
3,O=C1c2ccsc2SCCN1Cc1ccc(Cl)cc1Cl,7.37
4,COc1ccc(C(CC(=O)Nc2ccccc2OC)n2cccc2)cc1 (centres unmarked),2.89
5,Cc1ccc(C(=O)N/N=C\C=C\c2ccccc2[N+](=O)[O-])cn1,7.61
6,C(=C\c1ccccc1)/C=N/Nc1nncc(-c2ccccc2)n1,4.92
7,Cc1nnc(C)n1/N=C/c1ccc(C(C)C)cc1,0.0637
8,Cc1occc1C(=O)N/N=C/c1ccc(Cl)c([N+](=O)[O-])c1,3.83
9,CC(=O)N1CCC(=NNC(=O)CSc2cc(C)c(Br)cc2C)CC1,12.3
10,O=C1/C(=C/c2ccc(O)c([N+](=O)[O-])c2)SC(=S)N1Cc1ccccc1,6.84
11,C=Cn1cc[n+](CC(=O)c2ccc(Cl)c(Cl)c2)c1.[Br-],11.8
12,CNC(=O)CC1C(=O)N(c2ccc(Cl)cc2)C(=S)N1CCc1ccc(OC)c(OC)c1 (centres unmarked),10.1
13,CCCCCn1c(=O)c(C(=O)Nc2ccccc2N)c(O)c2ccccc21,15.3
14,Cc1cc(C)cc(NC(=O)CSc2ncc(S(=O)(=O)c3ccccc3)c(=O)[nH]2)c1,11.1
15,CCN1CCN(Cc2cc(=O)oc3cc4c(cc23)CCC4)CC1,-6.07
16,CC(C)C[C@H](NC(=O)c1[nH]cnc1C(=O)N[C@@H](Cc1ccccc1)C(=O)OC(C)(C)C)C(=O)OCc1ccccc1,9.61
17,Oc1c(Br)cc(Br)cc1/C=N/Nc1ccc(Cl)nn1,16.7
18,Cc1cc(C)n2c(SCC(=O)N(CC(C)C)c3c(N)n(CC(C)C)c(=O)[nH]c3=O)nnc2n1,9.86
19,CCN(C(=O)CSc1nc(-c2cccs2)nc2ccccc12)C1CCS(=O)(=O)C1 (centres unmarked),-78.4
20,CCOC(=O)c1c(NC(=O)c2c(-c3ccccc3)noc2C)sc(C)c1-c1ccccc1,-13
21,COc1ccc(N2CS(=O)CC2=O)cc1 (centres unmarked),-1.75
22,Cc1ccc(-c2noc(CSc3nnc(-c4cccs4)n3C)n2)cc1,15.7

row,SMILES,"hERG current change (%, negative = inhibition) at 1uM [%]"
1,CCOc1ccccc1C1CC(c2ccc(F)cc2)Nc2nc(N)nn21 (centres unmarked),-12.1
2,CCOC(=O)c1c(NC(=O)CSc2nc3ccccc3s2)sc(C)c1C,12.3
3,O=C(NC(=S)Nc1ccc(F)c(Cl)c1)C1CC1,0.933
4,O=C(NC(c1ccccc1)c1ccccc1)c1ccc(Br)o1,8.44
5,CCCCN1CCC(COC(=O)c2cc(Cl)c(N)c3c2OCCO3)CC1.Cl,-23.9
6,CCn1c(SCC(=O)c2ccccc2)nc2c(c1=O)SC(C)C2 (centres unmarked),-1.19
7,COc1ccc(C2Nc3ccccc3NC3=C2C(=O)CC(C)(C)C3)cc1O (centres unmarked),9.77
8,Cc1cc(=O)c(C(=O)O)nn1-c1ccccc1[N+](=O)[O-],6.6
9,O=c1cc(-c2ccccc2)c2ccc(O)c(CN3CCCCC3)c2o1,7.06
10,Cc1ccc(S(=O)(=O)Oc2ccc(/C=N/NC(=O)c3cccnc3)cc2)cc1,3.45
11,CCN(CC)CCNc1ccnc2cc(Cl)ccc12,5.14
12,Cc1ccc(Cl)cc1NC(=O)COC(=O)CC1CC2CCC1C2 (centres unmarked),9.36
13,CC(/C=C1\NC(=S)NC1=O)=C\c1ccccc1,12
14,COc1cc(C(=O)NCCNC(=O)c2ccc(C)nc2)cc(OC)c1OC,12
15,COc1ccc(/C=C/C(=O)N2CCN(C)CC2)cc1OC,16
16,CN(CCc1ccccn1)C(=S)Nc1ccc(Cl)c(Cl)c1,13.2
17,CC1CN(C(=O)Nc2ccc(F)cc2)C2(CCCCCC2)O1 (centres unmarked),6.65
18,Cc1cc(C(=O)Nc2cccnc2)on1,8.81
19,COc1ccc(N2C(=O)c3cccc4c(N(C)CCO)ccc(c34)C2=O)cc1,9.82
20,Cc1ccc(CNC(=O)c2oc3ccc(S(=O)(=O)N4CCC5(CC4)OCCO5)cc3c2C)cc1,8.87
21,N#Cc1ccc(NC(=S)Nc2ccccc2)cc1,5.21
22,Cc1ccc(CSCC(=O)Nc2ccc(F)cc2)cc1,8.03

row,SMILES,"hERG current change (%, negative = inhibition) at 1uM [%]"
1,CCOC(=O)/C=C/C(=O)Nc1ccc(S(=O)(=O)N2CCc3ccccc32)cc1,5.66
2,CCOC(=O)CCCNC(=O)c1cncc(O)c1.Cl,0.527
3,CCSc1nc2c(c(=O)[nH]c(=O)n2C)n1C/C=C(/C)Cl,-3.5
4,CC(NC(=O)CCn1ccc2cc(S(=O)(=O)N3CCCC3)ccc21)c1ccccc1 (centres unmarked),16.8
5,CCCCNC(=O)COc1ccccc1[N+](=O)[O-],-3.16
6,Cc1oc(-c2ccc(Cl)cc2)nc1CN1CCC(C(=O)NCc2cccs2)CC1,-30.2
7,COc1ccc(NC(=O)CSc2nc3n[nH]c(C)c3c(=N)n2-c2ccc(Cl)c(C)c2)cc1OC,14.9
8,COc1ccc(C2=NO[C@@H]3C(=O)N(Cc4ccccc4)C(=O)[C@H]23)c(OC)c1,15
9,COC(=O)C1=CN(c2cccc(Cl)c2)C=C(C(=O)OC)C1c1cccc(OC)c1,17.1
10,Cc1ccc(-n2c(SCC(=O)O)nc3sc4c(c3c2=O)CCCC4)cc1,-2.52
11,O=C(CSc1nc2[nH]ncc2c(=O)[nH]1)Nc1ccccc1C(F)(F)F,14.6
12,Cc1cccc(C)c1OCC(=O)N(Cc1ccc(Cl)cc1)C1CCS(=O)(=O)C1 (centres unmarked),9.13
13,O=C(O)CCCCCn1c(O)c(C=C2N=c3ccccc3=N2)sc1=S,10.5
14,Cc1ccc(Oc2cc([N+](=O)[O-])cc3c2C(=O)Nc2ccccc2O3)cc1,8.68
15,O=C(CN1CCOc2ccccc21)N1CCCC1,9.56
16,CC(=O)Nc1ccc(S(=O)(=O)NC(C)(C#N)C2CC2)cc1 (centres unmarked),12.5
17,COc1cccc(CNC(=O)C(=O)NCC2CCCN2S(=O)(=O)c2cc(C)ccc2C)c1 (centres unmarked),-3.27
18,CCOc1ccc(NC(=O)c2ccc(N3CC4CC(C3)c3cccc(=O)n3C4)c(NC(=O)c3ccncc3)c2)cc1 (centres unmarked),18.5
19,O=C(NCc1cccs1)c1cnc2sccn2c1=O,-2.69
20,COc1ccc(C(CNC(=O)c2ccc3c(c2)CCC3)N(C)C)cc1 (centres unmarked),4.94
21,CCCCNC(=O)CN1CCN(Cc2ccc3cc(OC)ccc3c2)CC1.O=C(O)C(=O)O,-26.3
22,CC1CCN(C(=O)CSc2ccc(-c3ccccc3)nn2)CC1,-14.1

row,SMILES,"hERG current change (%, negative = inhibition) at 1uM [%]"
1,Cc1ccc(NC(=O)CN(C)CC(=O)Nc2ccc(N3CCOCC3)cc2)cc1F.O=C(O)C(=O)O,-5.19
2,Cc1ccc(NC(=O)CSc2nnc(Cn3cnc4ccccc43)o2)c(C)c1,20.5
3,Cc1cc(C(=O)NCc2ccc(S(N)(=O)=O)cc2)cs1,-6.92
4,CCOC(=O)c1c(NC(=O)COC(=O)C2CC2C)sc(C)c1C (centres unmarked),12.4
5,C=CCc1cccc(/C=N/NC(=O)C(C)Nc2ccc(C)cc2)c1O (centres unmarked),14.3
6,COc1ccc(Cl)cc1NC(=O)COC(=O)CCCC1=NS(=O)(=O)c2ccccc2N1,11.6
7,O=C1/C(=C\c2cccnc2)CCc2ccccc21,-2.68
8,CCN(CC(=O)NCc1ccc(F)cc1)C(=O)CN1CCN(c2ccc(OC)cc2)CC1.O=C(O)C(=O)O,-21.1
9,Cc1cc(C)n(/C(=C/N(C)C)C(=O)c2ccccc2)n1,4.36
10,Cc1ccc(-c2nc3cnccn3c2Nc2c(C)cccc2C)o1,1.94
11,Cc1ccc(C)c(COC(=O)CCN=C2NS(=O)(=O)c3ccccc32)c1,14.1
12,O=C(COC(=O)/C=C/c1cccc(Cl)c1)Nc1ccccc1-c1ccccc1,10.5
13,Cc1ccc2[nH]c(=O)c(CN(Cc3ccccc3)C(=S)NCCCN(C)C)cc2c1,4.21
14,CC(C)(C)OC(=O)NCCCC1=CC2=CC(=O)C(C)(OC(=O)c3ccco3)C(=O)C2=CO1 (centres unmarked),-3.19
15,COCCSc1nnc(NC(=O)c2ccco2)s1,18.5
16,Cc1ccc(S(=O)(=O)N(C)c2ccc(OCC(=O)OCC(=O)N(CC#N)c3ccccc3)cc2)cc1,-2.38
17,COc1ccc(CCn2nnnc2C(c2ccccc2)N2CCN(C)CC2)cc1OC.Cl (centres unmarked),10.8
18,O=C(NCCCNCCCNC(=O)c1ccccn1)c1ccccn1,-10
19,Cc1cc(/C=C(\C#N)C(N)=O)c(C)n1-c1ccc(N2CCOCC2)c([N+](=O)[O-])c1,1.75
20,COCCCN(C(=S)Nc1c(C)cc(C)cc1C)C(C)c1ccncc1 (centres unmarked),7.15

# Reference: article PMC4336329 (PLoS ONE, 2015)
